# From the supplement of paper PMC10037445
# Whole data set: some 2,900 compounds, median “NF-kB SEAP reporter activity, fold change vs agonist alone” near 0.99, cut for the highest 2% near 2.6. The list shows a part of the results.
# Experiments:
# RAW-Dual [1] = experiment: NF-kB SEAP reporter activity, fold change vs agonist alone; higher = enhanced NF-kB activity
# Procedure, shortened: (§1)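 Reporter activity is given as fold change relative to agonist-alone wells. To measure it, 50 nL of library stock was pin-tooled onto RAW-Dual macrophages (50,000 cells/well, DMEM, 384-well plates), a PRR agonist followed 1 h later, and cells stayed at 37 °C, 5% CO2. Twenty hours on, supernatant was assayed for IRF (QuantiLuc luminescence) and NF-κB (QuantiBlue, 620 nm absorbance), and wells under 70% of agonist-control IncuCyte confluency in both mask sets were marked cytotoxic.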
# RAW-Dual [2] = experiment: NF-kB SEAP reporter activity, fold change vs agonist alone; cytotoxicity flag (confluency mask): not cytotoxic; higher = enhanced NF-kB activity
# Procedure, shortened: as §1
# RAW-Dual [3] = experiment: NF-kB SEAP reporter activity, fold change vs agonist alone; cytotoxicity flag (confluency mask): cytotoxic (confluency <70% of control); higher = enhanced NF-kB activity
# Procedure, shortened: as §1
# [4] = library stock concentration (final ~1000-fold dilution): 10 mM, cytotoxicity flag (confluency mask): not cytotoxic, agonist: Imiquimod (TLR7) […]
# [5] = library stock concentration (final ~1000-fold dilution): 10 mM, cytotoxicity flag (confluency mask): not cytotoxic, agonist: MPLA (TLR4) […]
# [6] = agonist: ODN 1826 (TLR9) 0.5 ug/mL
# [7] = agonist: Pam2CSK4 (TLR2/6) 0.1 ug/mL
# [8] = agonist: Pam3CSK4 (TLR2/1) 0.1 ug/mL
smiles,measurement,setting,value
Cc1cc(N2CCOCC2)ccc1Nc1nc(NC2CCCCC2)c2nc[nH]c2n1,NF-kB SEAP reporter activity,RAW-Dual [1]; [4],0.925
same,NF-kB SEAP reporter activity,RAW-Dual [1]; [5],1.04
Cc1cc(N2CCOCC2)ccc1Nc1nc(NC2CCCCC2)c2nc[nH]c2n1 (library stock concentration (final ~1000-fold dilution): 10 mM),NF-kB SEAP reporter activity,RAW-Dual [2]; agonist: LPS (TLR4) 0.1 ug/mL,1.44
same,NF-kB SEAP reporter activity,RAW-Dual [2]; [6],0.814
same,NF-kB SEAP reporter activity,RAW-Dual [2]; [7],1
same,NF-kB SEAP reporter activity,RAW-Dual [2]; [8],0.926
COc1ccc(-c2nc(-c3cc(C(F)(F)F)cc(C(F)(F)F)c3)n(Cc3ccc(C(N)=O)cc3)c2-c2ccc(OC)cc2)cc1 (library stock concentration (final ~1000-fold dilution): 10 mM),NF-kB SEAP reporter activity,RAW-Dual [2]; agonist: LPS (TLR4) 0.1 ug/mL,0.925
same,NF-kB SEAP reporter activity,RAW-Dual [2]; [6],0.356
same,NF-kB SEAP reporter activity,RAW-Dual [2]; [7],0.168
same,NF-kB SEAP reporter activity,RAW-Dual [2]; [8],0.127
COc1ccc(-c2nc(-c3cc(C(F)(F)F)cc(C(F)(F)F)c3)n(Cc3ccc(C(N)=O)cc3)c2-c2ccc(OC)cc2)cc1,NF-kB SEAP reporter activity,RAW-Dual [1]; [4],0.356
same,NF-kB SEAP reporter activity,RAW-Dual [1]; [5],0.734
Cc1sc2c(c1C)C(c1ccc(Cl)cc1)=N[C@@H](CC(=O)NCCCCCCCCNC(=O)COc1cccc3c1C(=O)N(C1CCC(=O)NC1=O)C3=O)c1nnc(C)n1-2 (stereo partly drawn),NF-kB SEAP reporter activity,"RAW-Dual [1]; library stock concentration (final ~1000-fold dilution): 10 mM, cytotoxicity flag (confluency mask): cytotoxic (confluency <70% of control), agonist: Imiquimod (TLR7) […]",1.73
same,NF-kB SEAP reporter activity,"RAW-Dual [1]; library stock concentration (final ~1000-fold dilution): 10 mM, cytotoxicity flag (confluency mask): cytotoxic (confluency <70% of control), agonist: MPLA (TLR4) […]",2.44
Cc1sc2c(c1C)C(c1ccc(Cl)cc1)=N[C@@H](CC(=O)NCCCCCCCCNC(=O)COc1cccc3c1C(=O)N(C1CCC(=O)NC1=O)C3=O)c1nnc(C)n1-2 (stereo partly drawn) (library stock concentration (final ~1000-fold dilution): 10 mM),NF-kB SEAP reporter activity,RAW-Dual [3]; agonist: LPS (TLR4) 0.1 ug/mL,3.73
same,NF-kB SEAP reporter activity,RAW-Dual [3]; [6],1.84
same,NF-kB SEAP reporter activity,RAW-Dual [3]; [7],1.74
same,NF-kB SEAP reporter activity,RAW-Dual [3]; [8],3
CC(C)C(CO)Nc1nc(Nc2cccc(Cl)c2)c2ncn(C(C)C)c2n1 (stereo not drawn) (library stock concentration (final ~1000-fold dilution): 10 mM),NF-kB SEAP reporter activity,RAW-Dual [2]; agonist: LPS (TLR4) 0.1 ug/mL,0.715
same,NF-kB SEAP reporter activity,RAW-Dual [2]; [6],1.05
same,NF-kB SEAP reporter activity,RAW-Dual [2]; [7],1.22
same,NF-kB SEAP reporter activity,RAW-Dual [2]; [8],0.679
CC(C)C(CO)Nc1nc(Nc2cccc(Cl)c2)c2ncn(C(C)C)c2n1 (stereo not drawn),NF-kB SEAP reporter activity,RAW-Dual [1]; [4],1.19
same,NF-kB SEAP reporter activity,RAW-Dual [1]; [5],1.14
CNC(=O)c1ccc(Nc2ncc(C(F)(F)F)c(NCc3nccnc3N(C)S(C)(=O)=O)n2)cc1 (library stock concentration (final ~1000-fold dilution): 2 mM),NF-kB SEAP reporter activity,RAW-Dual [2]; agonist: LPS (TLR4) 0.1 ug/mL,1.96
same,NF-kB SEAP reporter activity,RAW-Dual [2]; [6],0.888
same,NF-kB SEAP reporter activity,RAW-Dual [2]; [7],1.12
same,NF-kB SEAP reporter activity,RAW-Dual [2]; [8],1.47
CNC(=O)c1ccc(Nc2ncc(C(F)(F)F)c(NCc3nccnc3N(C)S(C)(=O)=O)n2)cc1,NF-kB SEAP reporter activity,"RAW-Dual [1]; library stock concentration (final ~1000-fold dilution): 2 mM, cytotoxicity flag (confluency mask): not cytotoxic, agonist: Imiquimod (TLR7) […]",0.85
same,NF-kB SEAP reporter activity,"RAW-Dual [1]; library stock concentration (final ~1000-fold dilution): 2 mM, cytotoxicity flag (confluency mask): not cytotoxic, agonist: MPLA (TLR4) […]",1.07
Cc1cc2c(s1)Nc1ccccc1N=C2N1CCN(C)CC1,NF-kB SEAP reporter activity,RAW-Dual [1]; [4],0.855
same,NF-kB SEAP reporter activity,RAW-Dual [1]; [5],1.02
Cc1cc2c(s1)Nc1ccccc1N=C2N1CCN(C)CC1 (library stock concentration (final ~1000-fold dilution): 10 mM),NF-kB SEAP reporter activity,RAW-Dual [2]; agonist: LPS (TLR4) 0.1 ug/mL,0.923
same,NF-kB SEAP reporter activity,RAW-Dual [2]; [6],0.288
same,NF-kB SEAP reporter activity,RAW-Dual [2]; [7],1.05
same,NF-kB SEAP reporter activity,RAW-Dual [2]; [8],1.03
CCN(CC)CCOC(=O)c1ccc(N)cc1.Cl,NF-kB SEAP reporter activity,RAW-Dual [1]; [4],0.904
same,NF-kB SEAP reporter activity,RAW-Dual [1]; [5],1.06
CCN(CC)CCOC(=O)c1ccc(N)cc1.Cl (library stock concentration (final ~1000-fold dilution): 10 mM),NF-kB SEAP reporter activity,RAW-Dual [2]; agonist: LPS (TLR4) 0.1 ug/mL,1.16
same,NF-kB SEAP reporter activity,RAW-Dual [2]; [6],0.957
same,NF-kB SEAP reporter activity,RAW-Dual [2]; [7],1.09
same,NF-kB SEAP reporter activity,RAW-Dual [2]; [8],1.11
CN1C(=O)C(Cc2c[nH]c3ccccc23)NC1=S (stereo not drawn),NF-kB SEAP reporter activity,RAW-Dual [1]; [4],0.924
same,NF-kB SEAP reporter activity,RAW-Dual [1]; [5],1.01
CN1C(=O)C(Cc2c[nH]c3ccccc23)NC1=S (stereo not drawn) (library stock concentration (final ~1000-fold dilution): 10 mM),NF-kB SEAP reporter activity,RAW-Dual [2]; agonist: LPS (TLR4) 0.1 ug/mL,1.08
same,NF-kB SEAP reporter activity,RAW-Dual [2]; [6],0.938
same,NF-kB SEAP reporter activity,RAW-Dual [2]; [7],1.13
same,NF-kB SEAP reporter activity,RAW-Dual [2]; [8],1.21
